Measurements taken from the supplement of paper PMC10126150.
Values marked as one replicate rest on one cluster of the flow cell; about a third of the high ones do not repeat.

Test system: ATP
Assay: switch fluorescence ratio, 500 uM ATP over buffer (Cy3 cluster intensity, sum of 5 cycles each) (fold (ratio)); higher = stronger signal-on switching upon ATP binding; sequences stand for … in TCGTCGGCAGCGTCAGATGTGTATAAGAGACAGTTTTTTTTTTTTTTTTTTTTTTTTT…TC
Conditions: aptamer strand: ATP DNA aptamer (quencher-CACCTGGGGGAGTATTGCGGAGGAAGG + anchor), 100 nM annealed; ATP concentration: 500 uM; one replicate
Summary of the method: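 Clusters carrying Cy3-labelled switching strands on a modified Illumina MiSeq flow-cell were annealed to 100 nM quencher-labelled ATP aptamer and imaged in selection buffer. They were imaged again after 15 min with 500 uM ATP at 22 °C, over five buffer/ATP cycles with NaOH stripping and re-annealing in between. For each cluster, the fluorescence ratio is the summed Cy3 intensity of the target cycles divided by that of the buffer cycles, averaged per switch-domain sequence. Clusters outside 100-1000 RFU were left out.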
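Also: ATP exposure 15 min at 22 °C before imaging.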

Sequence | switch fluorescence ratio
GATGGCTGGG | 1.03
TTTGTACGAG | 0.993
CACACCACTT | 1.32
TTAGACACGG | 1.04
ATGTAATAAG | 1
GGCTTCAATA | 1
TAAACTGTAT | 1.07
TTGTTATAC | 1.09
AAAGCTCAGG | 1.04
GAGTTCCTAT | 0.995
CGTTTCCTGT | 0.928
CGGCTCTGCT | 1.01
ATGGAGATC | 1.03
GGTTCTAGCT | 0.964
CTCGTAAGGC | 2.05
GCATGACCGT | 0.972
AGGCGTGGTG | 0.996
CAGGTTACAG | 1.05
CTAAAGGTAG | 0.955
CTTATGACTT | 0.984
TGTAAGCTGC | 1.04
GAGAGATAAC | 0.942
TAAGCCAGT | 0.974

Sequence | switch fluorescence ratio
AACTACAC | 1.25
AAGTTCGCGG | 1.01
TTATTTAGTA | 1.04
CAGATTGCAC | 1.02
TTTGACTGCT | 1.01
GACGTAAGAG | 1.38
TTTCATTATA | 1.03
AATCCATCGA | 0.97
CTTTAGGGTT | 0.995
TCGTATGGGA | 0.96
AATGAATAAT | 1
ACTGCCGTGA | 1
TCGACGGTGC | 1.98
CTACTCGCGC | 1.35
TGAACTCTCA | 1.07
CATAGTTGGG | 0.971
CATGGCGGGG | 1.03
CATGAGCAGG | 1.12
CCGGGCTCGG | 0.97
CCTGGGGCCC | 0.968
TTTTAGCCTG | 1.1
GGGAGAGCTT | 1.01
CCCACTAGCA | 1.19

Sequence | switch fluorescence ratio
CCACATGCTC | 1.59
ATGAGATGTT | 0.973
ACTTAGGGGC | 1.06
GTGTCGACCT | 1.02
CTGCAAGGTA | 1.08
TGTCCGCGAG | 2.91
CGCGGTGATT | 1
TCGTGGTATG | 1
CATCAACACT | 1.03
AGGTATACGA | 1.02
CCATAGTGCA | 1.05
CGTGCTGAGC | 1
TGACAACATA | 1.04
GCATAGGGTA | 1.02
TAGATTGACA | 1.02
GAATCTTGGT | 1.01
TGTCAAACTA | 0.994
AAACAGTCGA | 1.03
GTTGCTAAGT | 0.999
GCTTAAATAT | 0.99
GATTAGAGGA | 1.02
TATGAAGGCG | 1.02
TTGGAGACTC | 0.995

Sequence | switch fluorescence ratio
TCAGTTCGTG | 1
GAGAGTGATT | 1.01
TTGCCTCTGT | 1.14
GATAGAGTTC | 0.94
ATGCCCGTTT | 0.974
CACTCTAAGG | 1.04
TTTCGAGCG | 1.02
CCTTGCAGTA | 4.91
TTATCTAAGG | 1.02
TTATCTTCGT | 1.03
ATGCTAGTGC | 1.03
GCTGGACTT | 0.984
CGGCGAGGCT | 1.04
AAACTTAGGA | 1.07
TCCGAAGGGC | 1.3
GTTACATACG | 1.51
TGGGCATGGT | 1.16
TCGACCTTGG | 1.09
TGGGACACTT | 1.05
GTCGACGATT | 0.967
ATGCGAATTA | 1
TATCATTCCT | 0.99
TTAGGTCCAT | 1.29

Sequence | switch fluorescence ratio
CGGGTCTGGA | 1.02
GCCAGCGGTC | 1.03
AACTTTCTTG | 0.954
TCTTGGAGTC | 1.01
TGGAATGCCC | 0.953
AGGGGGTGCA | 1.05
TCAGTCATGG | 1.08
ATCTATGTAC | 1.12
TTACAGAGAC | 1.06
GCCGAATAGG | 1.02
TTATGAAGTC | 0.985
TATTAGCGCC | 0.962
AAGACGATCT | 0.99
ATGTATTACA | 1.03
GTCTTTAAAA | 0.953
TGTTGGGGCA | 0.98
TAGCGACATC | 0.974
GTCGTTTAGG | 1.01
AAGGTACCGC | 1.15
GGAAGATAGT | 0.995
TTCGTTGGT | 0.999
GACAACTAAG | 1
GACTTATGGA | 1.01

Sequence | switch fluorescence ratio
ATCTGGTTCG | 0.959
AATGTCACAA | 1.09
GATGATTAAT | 0.986
GTTCTCTGAT | 0.989
CGTACCT | 1.3
GGAGCGTGTA | 0.995
GCACAAAGAG | 1.05
CGGCGCTGTA | 0.978
ATAGTCACCG | 1.07
TAGTCCGCTA | 2.84
GGCGGAATCA | 1.04
GTGCTGCATG | 0.991
GGTCGTCACA | 0.971
CCACCCCCCG | 1.5
CCACCAAATT | 1.09
ACTATTGGT | 1.03
ATTGACCAGC | 1.06
CCCCGATTAT | 3.32
GTCACACTC | 1.06
TTTGGAGCCC | 0.981
TTTCAATGGG | 1.05
ATAGCTGACA | 1.05
TATGCTTGTT | 1.03

Sequence | switch fluorescence ratio
GGTTTCCGCT | 1.09
GGAGCCGACT | 0.999
GTGACAGGA | 0.977
CATGTAAGT | 0.961
CGTATCTTCT | 0.979
ATGCGAGCGT | 0.96
AACGGTGTTG | 0.993
TTACACATTA | 1.1
TATTCCAGCG | 1.03
AGCATTTCAT | 0.952
TAAGCGTTGG | 0.993
GCGGAACTAG | 1.03
GCACTAGCAA | 1.04
TAAAGAGAGG | 1.02
GCTGGACGTT | 0.986
GTGACTACTT | 0.99
AACCAGTCAG | 1.06
GGTTTTCATG | 1.01
CTTACGGTAA | 1.16
